Laboratory results published in PubChem BioAssay AID1159614 (National Center for Advancing Translational Sciences (NCATS), 2016).
Hit rate of the full screen: of about 45,000 compounds, about 65 (0.1%) were called active. The call rests on the fitted dose curve; in most records, active means well fitted activation curve with a large enough effect; inconclusive means small, poorly fitted or top-dose-only effect; inactive means no such curve, though single readings can be large or run the other way. This is one part of the list.

target: Galactocerebrosidase (Homo sapiens) (UniProt P54803); assay: A Novel Cell-Based Assay to Identify Small Molecules for B -Galactocerebrosidase; conditions: 145M-Twi-hGALC-G270D cells (Twitcher mouse brain line with human GALC G270D), HMU-beta-Gal fluorescence, 48 h; series mostly up to 57.5 µM; activation: at the top concentration; further: 0% is about no effect; nearly all actives have a fitted effect of over 65% in size
Procedure, shortened: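 Live 145M-Twi cells (Twitcher mouse brain-derived, GALC-null) stably expressing human GALC-G270D, with a wild-type GALC line, were compound-treated. Residual GALC activity was then read as fluorescence from 0.1 mM final HMU-β-gal at pH 5.2; higher signal means activation.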

Sequence of UniProt P54803 (P54803 whole entry, looked up): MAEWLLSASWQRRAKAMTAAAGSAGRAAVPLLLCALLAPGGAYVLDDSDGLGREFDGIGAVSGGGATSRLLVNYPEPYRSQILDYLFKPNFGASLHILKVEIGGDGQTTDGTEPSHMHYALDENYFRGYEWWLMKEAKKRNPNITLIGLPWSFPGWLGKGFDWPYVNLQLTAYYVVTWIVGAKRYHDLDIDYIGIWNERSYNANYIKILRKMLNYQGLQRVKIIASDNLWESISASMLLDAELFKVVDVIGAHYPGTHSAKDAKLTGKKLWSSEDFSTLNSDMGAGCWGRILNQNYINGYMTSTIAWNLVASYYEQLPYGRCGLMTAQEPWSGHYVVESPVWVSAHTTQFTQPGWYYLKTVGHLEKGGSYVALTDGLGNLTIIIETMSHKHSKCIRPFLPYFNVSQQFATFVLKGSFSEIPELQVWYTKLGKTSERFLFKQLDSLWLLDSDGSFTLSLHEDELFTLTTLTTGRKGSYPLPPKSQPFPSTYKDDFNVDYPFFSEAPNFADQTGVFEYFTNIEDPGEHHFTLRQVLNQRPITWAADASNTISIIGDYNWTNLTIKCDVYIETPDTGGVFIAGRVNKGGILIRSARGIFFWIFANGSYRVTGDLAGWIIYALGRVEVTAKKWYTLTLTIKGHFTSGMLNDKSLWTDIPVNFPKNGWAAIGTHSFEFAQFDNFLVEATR

activation, inactive:
COc1ccc(NC(=O)CSc2nc3nc(C)c(Cc4ccc(C)cc4)c(C)n3n2)cc1OC -8.79%
COc1cc2[nH]c(=O)n(Cc3ccc(C(=O)NCc4ccccc4)cc3)c(=O)c2cc1OC -12.2%
Cc1nc(N2CCCC2)c2c(C(=O)Nc3cccc(Cl)c3C)c(C)oc2n1 4.82%
Cc1ccc(-n2ncc3c(NCCCc4ccccc4)ncnc32)cc1 -7.5%
CCc1ccc(NC(=O)c2cc(S(=O)(=O)N3CCCCCC3)ccc2F)cc1 -23.9%
Cc1ccc(NC(=O)Nc2nnc(SCC(=O)Nc3ccc(F)cc3F)s2)cc1 -9.03%
Cc1cccc(C)c1NC(=O)c1csc2c1CCCC2 -10.6%
COc1ccccc1NC(=O)C(=O)c1cc(C)n(-c2ccccc2F)c1C -5.67%
O=C(NCCCc1nc2ccccc2n1Cc1cccc(Cl)c1)c1ccco1 -25.3%
Cc1ccc(-n2ncc3c(NCCCN4CCOCC4)ncnc32)cc1Cl -16%
CCCCN1CC(c2nc3ccccc3n2CCCCOc2ccc(C)cc2C)CC1=O (stereo not drawn) -38.8%
O=C(NCCn1cc(SCc2ccc(F)cc2)c2ccccc21)c1c(F)cccc1F -12%
Cc1ccc(C2c3c(-c4ccccc4O)n[nH]c3C(=O)N2CCCO)cc1 (stereo not drawn) -20.6%
CCOC(=O)c1cccc(NC(=O)c2ccc3c(c2)nnn3C2CCCC2)c1 0.619%
COc1cc(C(=O)NC2CCCNC2)cc(OC)c1OC (stereo not drawn) -3.76%
Cn1nnnc1SCCNCc1ccccc1OCc1ccccc1F 5.62%
Cc1ccc(Cn2c(C(=O)Nc3cccc(Cl)c3)cc3sccc32)cc1 -21.4%
Cn1cnc(S(=O)(=O)N2CCCC(C(=O)Nc3ccc(F)cc3Cl)C2)c1 (stereo not drawn) -12.2%
CSc1ncc(Cl)c(C(=O)Nc2ccc(S(=O)(=O)N3CCC(C)CC3)cc2)n1 -17.3%
CCCCc1cc(=O)oc2cc(C)c3c(C)coc3c12 -19.7%
COc1cccc(CNC(=O)C2CCN(c3nc4ccc(Cl)cc4[nH]3)CC2)c1 -4.76%
CCc1ccc(OCCCSc2nc(-c3ccc(C(C)(C)C)cc3)nc3cc(=O)[nH]n23)cc1 -38.1%
COC(=O)c1ccc(NS(=O)(=O)c2ccc(-n3cccn3)cc2)cc1 -2.94%
CC(=O)c1ccc(N2CCN(S(=O)(=O)c3ccc4c(c3)CC(C)N4C(=O)C3CCC3)CC2)cc1 (stereo not drawn) -14.7%
COc1ccc2c(c1)CC(NC(=O)Nc1cc(Cl)ccc1OC)CO2 (stereo not drawn) -13.4%
COc1cccc(C(=O)Nc2ccc(Cl)c(-c3nc4ccccc4[nH]3)c2)c1 -19%
CSc1nc(C)cc(Nc2c(C)cc(C)cc2C)n1 -8.4%
Cc1ccccc1NC(=O)c1ccc2nc(Cc3ccccc3)oc2c1 -28.1%
CC(=O)c1ccc(NS(=O)(=O)c2cc(-c3cnc(C4CC4)o3)ccc2C)cc1 1.61%
Cc1ccc(S(=O)(=O)c2cn(C)c3cc(N4CCCCCC4)c(F)cc3c2=O)cc1 -11.7%
O=C(CCSCc1cnn(-c2ccccc2)c1-n1cccc1)NCc1ccccc1F -10.8%
CCOc1ccc(NC(=O)c2cc3c(-c4ccccc4F)nn(C)c3s2)cc1 -10.6%
Cn1c(SCc2ccc(F)cc2)nc2c([nH]c3ccccc32)c1=O -0.221%
Cc1ccc(Cn2c(=O)n(-c3ccccc3)c(=O)c3ccc(C(=O)NCc4ccco4)cc32)cc1 -13.6%
C=Cc1ccc(Cn2c(C(=O)O)c(CNCc3cccs3)c3ccc(C)cc32)cc1 -8.52%
COc1ccccc1C(=O)Nc1c(C(=O)N(CCN(C)C)Cc2ccco2)oc2ccccc12 -21.9%
COc1ccc(OCC2c3cc(OC)c(OC)cc3CCN2C(=O)c2ccc(F)cc2)cc1 (stereo not drawn) -23.2%
CCN(CC)CCNC(=O)c1sc2nc3n(c(=O)c2c1C)CCCCC3 -7.87%
COc1ccc(C(=O)Nc2cc(-c3cccc(C)c3)nn2-c2ccccc2)cc1 -12.9%
Cc1ccc(-c2cn3c(n2)sc2cc(C(=O)NCCCN4CCCCC4)ccc23)cc1 8.06%
COc1ccc2cc3cc(C(=O)N4CCN(c5ccc(C(C)=O)cc5)CC4)sc3nc2c1Cl -22.4%
CCOC(=O)c1c(C)oc2nc(C)nc(N3CCN(c4ccc(C(C)=O)cc4)CC3)c12 -13.8%
COc1cccc(C(=O)N(Cc2sccc2C)C2CCS(=O)(=O)C2)c1 (stereo not drawn) 1.54%
CC(C)(C)OC(=O)N1CCC(c2c(C(=O)NCc3ccc(F)cc3)cnn2-c2ccc(F)cc2)CC1 1.6%
Cc1cc(NC(=O)Cn2c(=O)nc(-c3ccccc3F)c3cc(Cl)ccc32)ccc1Br 0.172%
O=S(=O)(NCCc1csc2nc(-c3ccc(F)cc3)nn12)c1ccc(Br)cc1 -12.7%
CCOC(=O)c1ccc(NC(=O)c2c(NCc3cccs3)sc3c2CCCCC3)cc1 -10.7%
CCCC(=O)O[C@]1(C(=O)CC)CC[C@H]2[C@@H]3CCC4=CC(=O)CC[C@]4(C)[C@H]3[C@@H](O)C[C@@]21C -1.06%
O=S(=O)(NCc1nc2cccnc2n1Cc1ccc(F)cc1)c1ccc2c(c1)CCCC2 -2.21%
CCOC(=O)c1c(N)n(-c2ccc(Cl)c(Cl)c2)c2nc3ccccc3nc12 4.55%
COc1cccc(CSc2nc3n(n2)C(c2cccs2)C(C(=O)Nc2ccccc2C)=C(C)N3)c1 (stereo not drawn) -5.83%
COc1cn(CC(=O)Nc2ccc(F)cc2)c(CN2CCCCC2)cc1=O -5.29%
CCN1CCN(c2cc(C)c3cc(NC(=O)c4cccc(C(F)(F)F)c4)ccc3n2)CC1 0.41%
Cc1ccc(NC(=O)Cn2c(=O)n(-c3ccc(Cl)c(Cl)c3)c(=O)c3c(C)c(C)sc32)c(C)c1 -12.6%
Cc1cccc(Cn2c(CN3CCC(C(=O)NCc4cccnc4)CC3)cc3ccccc32)c1 -4.79%
CC1=C(C(=O)Nc2ccccc2C)C(c2ccncc2)n2nc(SCc3ccccc3)nc2N1 (stereo not drawn) -12.4%
Cc1ccc(OCCn2cc(C(=O)C3CCCCC3)c3ccccc32)cc1 -2.29%
CCOC(=O)c1ccc(NC(=O)CC2C(=O)N(c3cccc(OC)c3)C(=O)N2C2CCCCC2)cc1 (stereo not drawn) -19.7%
Cc1ccc2[nH]c3c(=O)n(CC(=O)NCc4ccco4)ncc3c2c1 -11.1%
CCCCCCCCCCCCCCNCCO -17.4%
Cc1nn(CC(=O)NCc2ccc(F)cc2)c2ccccc12 -7.97%
CCCN(Cc1cccs1)C(=O)Nc1cc(Cl)ccc1C -7.69%
COc1ccc(Cl)cc1NC(=O)Cn1ncc2c3ccccc3n(C)c2c1=O 3.26%
CCOC(=O)c1ccc2nc(C)cc(Nc3cccc(C(=O)O)c3)c2c1 -4.61%
CCOC(=O)c1c(C)n(-c2ccccc2)c2ccc(OC(=O)c3ccccc3NC(=O)C(C)C)cc12 -3.27%
CC(=O)Nc1ccc(NC(=O)C2CCN(c3c(NC(C)=O)c(C)nn3-c3ccccc3)CC2)cc1 -3.5%
CCOC(=O)c1cccc(NC(=O)CCCn2nc(C)c3c(C)n(-c4ccccc4)nc3c2=O)c1 -4.72%
O=C(NCc1ccc(Cl)cc1)c1ccc2c(Cl)c3c(nc2c1)CCCC3 -27.6%
Cc1ccc(OCCSc2nnc(-c3cccs3)o2)cc1Cl -1.98%
Cc1ccc(Cn2c(CN3CCC(C(=O)NCc4ccccc4C)CC3)cc3ccccc32)cc1 -4.23%
Cc1ccc(CNc2nc(-c3ccco3)nn2S(C)(=O)=O)cc1 -26.3%
CCOc1ccccc1CNC(=O)CCn1c(=O)c2cccn2c2ccc(F)cc21 -12.7%
COc1ccc2c(c1)c(=O)c(C(=O)c1ccc(C)c(C)c1)cn2CC(=O)Nc1ccc2c(c1)OCCO2 -1.08%
COc1ccc(NC(=O)C2COc3ccccc3C2)cc1Cl (stereo not drawn) -21.5%
COc1ccc(-c2nc3cc(C(C)C)ccc3o2)cc1NC(=O)c1ccccc1[N+](=O)[O-] -9.33%
Cn1c(SCC(=O)Nc2ccccc2)nnc1-c1ccccc1 -10.8%
COc1ccc(Cl)cc1-n1nnc(-c2nc(-c3ccccc3)no2)c1C -21.1%
O=C1OC2(c3ccc(O)cc3Oc3cc(O)ccc32)c2ccccc21 11.1%
Cc1nnc(N2C(=O)c3oc4ccccc4c(=O)c3C2c2ccc(C(C)(C)C)cc2)s1 (stereo not drawn) -5.06%
COc1ccc(C)cc1NC(=O)CN1c2ccccc2S(=O)(=O)c2ccccc21 -13%
COc1ccc(C(=O)CSc2nc(C)cc(C)c2C(=O)Nc2ccccc2C)cc1 -12.5%
CCc1ccc(NC(=O)CSc2nc3ccccc3nc2Cc2ccc(C)cc2)cc1 -2.67%
Cc1ccc(NC(=O)CCOc2ccccc2)cc1 -21.9%
Cc1nc(N2CCCC2)ncc1C(=O)NCc1cccc(Cl)c1 -6.02%
COC(=O)c1ccc(NC(=O)CCS(=O)(=O)c2ccc(Br)s2)cc1 -19.2%
COc1ccc(NC(=O)c2cccc(N3CCCS3(=O)=O)c2)cc1OC -14%
CC(C)Cc1ccc(S(=O)(=O)N2CCC(c3ccncc3)CC2)cc1 -12.5%
COc1ccccc1N1CCN(C(=O)Cn2c(=O)n3nc(-c4ccc(C)cc4)nc3c3ccccc32)CC1 -20.1%
COc1ccccc1CNC(=O)c1ccc(CS(=O)(=O)c2c(Cl)cccc2Cl)o1 -7.55%
Cc1cccc(OCCSc2nc3ccccc3n2CC(=O)N2CCOCC2)c1 -5.91%
CC(=O)OCC1=C(C(=O)O)N2C(=O)[C@@H](NC(=O)CSc3ccncc3)[C@H]2SC1 -22.2%
COc1cccc(-c2nc(S(=O)(=O)c3ccccc3)c(N3CCCCC3)o2)c1 -13%
CCC(C)NC(=O)CSc1nc2cc3c(cc2c(=O)n1CCCC(=O)NCCc1ccc(OC)c(OC)c1)OCO3 (stereo not drawn) -4.91%
COCCNC(=O)c1ccc2c(=O)n(CCc3ccccc3)c(SCC(=O)CC(=O)OC)nc2c1 -12.7%
COc1cc2c(=O)c(C(=O)c3ccc(C)c(C)c3)cn(Cc3ccccc3F)c2cc1OC -10.3%
CCc1ccc(CNC(=O)c2c3c(nc4ccccc24)C(=O)N(C2CCCCC2)C3)cc1 -15.6%
CCCn1c(=O)c2sccc2n2c(CCCC(=O)N3CCN(c4ccccc4OC)CC3)nnc12 -12.7%

Potency, inactive:
Cc1ccc2c(n1)Oc1ccc(C(C)C(=O)OCC(=O)N(C)C)cc1C2 (stereo not drawn)
